Data taken from the antibiotic and cytotoxicity screens of Wong et al. (2023).
This is one part of the list.

System: HSkMC (human skeletal muscle cells)
Assay: cytotoxicity call (relative viability < 0.9)
Conditions: 10 µM

SMILES	cytotoxicity call
C[C@@H]1CN([C@H](C)CO)C(=O)c2cccc(NC(=O)c3cnccn3)c2O[C@@H]1CN(C)S(=O)(=O)c1cccs1	inactive
CN(C)CC#Cc1ccc([C@@H]2[C@H]3CN(C(=O)CN(C)C)CCCCN3[C@H]2CO)cc1	inactive
CCO/C(O)=C1/C(=O)CN(C)C1=O	inactive
Cc1ccc(S(=O)(=O)Nc2cccc3c2O[C@H](CN(C)Cc2ccc(Cl)c(Cl)c2)[C@@H](C)CN([C@@H](C)CO)C3=O)cc1	inactive
C[C@@H]1CN([C@@H](C)CO)C(=O)Cc2cc(NS(=O)(=O)c3ccc(Cl)cc3)ccc2O[C@H]1CN(C)C(=O)Nc1ccc(C(F)(F)F)cc1	inactive
COC(=O)[C@@]12OC[C@]34[C@H]([C@@H](O)[C@@H]1O)[C@@]1(C)CC(=O)C(=O)[C@H](C)[C@@H]1C[C@H]3OC(=O)[C@H](OC(=O)/C=C(\C)C(C)C)[C@@H]24	active
Cc1noc(C)c1S(=O)(=O)N(C)C[C@H]1Oc2ccc(NC(=O)NC3CCCCC3)cc2CC(=O)N([C@@H](C)CO)C[C@H]1C	inactive
COc1ccc(NC(=O)Nc2ccc3c(c2)C(=O)N([C@@H](C)CO)C[C@@H](C)[C@H](CN(C)C(=O)Nc2c(C)noc2C)OCCCC[C@@H](C)O3)cc1	inactive
COCC#Cc1ccc2c(c1)O[C@@H](CN(C)C(=O)CN(C)C)[C@@H](C)CN([C@@H](C)CO)S2(=O)=O	inactive
Cc1ccc(S(=O)(=O)Nc2ccc3c(c2)C(=O)N([C@H](C)CO)C[C@H](C)[C@H](CN(C)Cc2ccc(C(F)(F)F)cc2)OCCCC[C@H](C)O3)cc1	active
CCS(=O)(=O)N1CC[C@]2(CC1)CN([C@H](CO)c1c2c2ccc(cc2n1C)OC)C(=O)CN1CCOCC1	inactive
C[C@H](CO)N1C[C@H](C)[C@@H](CN(C)S(=O)(=O)c2cccs2)Oc2c(NC(=O)Nc3cccc4ccccc34)cccc2C1=O	inactive
CO[C@H]1CN(C)C(=O)c2cc(NS(=O)(=O)c3cn(C)cn3)ccc2OC[C@H](C)N(CCC(F)(F)F)C[C@H]1C	inactive
C[C@@H]1CCCCO[C@@H](CN(C)Cc2ccccc2)[C@@H](C)CN([C@H](C)CO)C(=O)c2cc(NC(=O)CCC(F)(F)F)ccc2O1	inactive
C[C@@H]1CN([C@H](C)CO)C(=O)c2cc(NC(=O)CCN3CCOCC3)ccc2O[C@H]1CN(C)S(C)(=O)=O	inactive
CC(C)(O)/C=C/C(=O)[C@](C)(O)[C@H]1[C@H](O)C[C@@]2(C)[C@@H]3CC=C4[C@@H](C=C(O[C@@H]5O[C@H](CO)[C@@H](O)[C@H](O)[C@H]5O)C(=O)C4(C)C)[C@]3(C)C(=O)C[C@]12C	inactive
C[C@@H]1CN([C@H](C)CO)C(=O)c2cc(NC(=O)Nc3ccc(C(F)(F)F)cc3)ccc2O[C@H]1CN(C)C(=O)Nc1ccccc1	inactive
Cc1noc(C)c1NC(=O)N(C)C[C@@H]1Oc2c(NC(=O)c3ccncc3)cccc2C(=O)N([C@H](C)CO)C[C@@H]1C	inactive
CNCc1nc(C(C)C)no1	inactive
C[C@@H]1CN([C@H](C)CO)C(=O)Cc2cc(N(C)C)ccc2O[C@H]1CN(C)C(=O)Nc1ccc2c(c1)OCO2	inactive

SMILES	cytotoxicity call
C[C@@H]1CN([C@@H](C)CO)C(=O)c2cc(NC(=O)Nc3ccc4c(c3)OCO4)ccc2O[C@@H](C)CCCCO[C@@H]1CN(C)Cc1ccc(C(=O)O)cc1	inactive
C[C@@H]1CN([C@H](C)CO)C(=O)c2cc(NC(=O)c3ccncc3)ccc2O[C@@H]1CN(C)Cc1ccc2c(c1)OCO2	inactive
C[C@H]1CN([C@@H](C)CO)C(=O)c2cccc(NC(=O)CCCCCC(=O)Nc3ccccc3N)c2O[C@@H]1CN(C)C(=O)Nc1ccc(F)cc1	inactive
O=c1[nH]ncc2ccccc12	inactive
C[C@H](CO)N1C[C@H](C)[C@H](CN(C)Cc2ccc(F)cc2)Oc2cc(C#CC(C)(C)O)ccc2S1(=O)=O	inactive
C[C@H](CO)N1C[C@H](C)[C@@H](CN(C)Cc2ccc(Cl)c(Cl)c2)Oc2c(NS(=O)(=O)c3cccs3)cccc2C1=O	inactive
C[C@H](CO)N1C[C@H](C)[C@H](CN(C)C(=O)Nc2cccc3ccccc23)Oc2ccc(NC(=O)Nc3ccc4c(c3)OCO4)cc2C1=O	inactive
C[C@@H]1CN([C@H](C)CO)C(=O)c2cc(NC(=O)Nc3cccc4ccccc34)ccc2O[C@@H](C)CCCCO[C@H]1CN(C)Cc1ccncc1	inactive
CCCC(=O)Nc1ccc2c(c1)C(=O)N(C)C[C@H](OC)[C@@H](C)CN(Cc1ccc(-c3ccccn3)cc1)[C@H](C)CO2	inactive
COc1ccccc1-c1cnc2c(c1)C(=O)N([C@H](C)CO)C[C@H](C)[C@H](CN(C)C(=O)c1ccncc1)O2	inactive
C[C@@H](NC(=O)C[C@@H]1C=C[C@@H](NC(=O)CN2CCOCC2)[C@@H](CO)O1)c1ccccc1	inactive
CC(C)(C)NC(=O)N1CCC(CN)CC1	inactive
C[C@H](CO)N1C[C@H](C)[C@H](CN(C)C(=O)Nc2ccc(F)cc2)OCCCC[C@H](C)Oc2ccc(NC(=O)CCC(F)(F)F)cc2C1=O	inactive
N=C(NO)C(=O)Nc1ccccc1	inactive
CCCNC(=O)N1C[C@@H](C)[C@@H](OC)CN(C)C(=O)c2ccc(NS(=O)(=O)CC(F)(F)F)cc2OC[C@H]1C	inactive
C[C@@H]1CCCCO[C@@H](CN(C)Cc2ccc(C(=O)Nc3ccccc3N)cc2)[C@@H](C)CN([C@H](C)CO)C(=O)c2cc(NC(=O)Nc3ccc(F)cc3)ccc2O1	inactive
C[C@@H]1CN([C@@H](C)CO)C(=O)Cc2cc(NS(C)(=O)=O)ccc2O[C@@H]1CN(C)S(=O)(=O)c1cn(C)cn1	inactive
COc1ccc(NC(=O)Nc2ccc3c(c2)[C@H]2C[C@@H](CC(=O)NCC(F)(F)F)O[C@@H](CO)[C@H]2O3)cc1	inactive
O=C(O)c1nn(Cc2ccccc2)nc1C(=O)O	inactive
O=C(CN1CCOCC1)NCC[C@H]1CC[C@@H](NC(=O)Cc2ccccn2)[C@H](CO)O1	inactive
